From PubChem BioAssay AID504845 (National Center for Advancing Translational Sciences (NCATS), 2011)
The whole screen tested about 390,000 compounds, of which about 150 (0.038%) were called active. The shares of active, inactive and inconclusive entries below differ from those in the screen. The call rests on the fitted dose curve; in most records, active means well fitted inhibition curve with a large enough effect; inconclusive means small, poorly fitted or top-dose-only effect; inactive means no such curve, though single readings can be large or run the other way. Where the call is inconclusive, the potency comes from a doubtful curve fit.

The compounds below were run against Regulator of G-protein signaling 4 (Homo sapiens) (UniProt P49798) (assay: Inhibitors of Regulator of G Protein Signaling (RGS) 4: qHTS). Details: Transcreener GDP fluorescence polarization, RGS4-accelerated GTP hydrolysis; series mostly up to 114 µM; activity change, negative = inhibition: at the top concentration.
Method in brief: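 MLSMR compounds (23 nl, pin-transferred) preincubated 10 min at room temperature with a 500nM (2x) first reagent, then RGS4 at 900nM (2x) plus Transcreener GDP mix added; fluorescence polarization (620/688 nm) read before and after 90 min at 30 °C.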
Further: nearly all actives have a fitted effect of over 75% in size.
On the % scale 0 is the no-effect control and ±100 the full control effect; potency means the concentration at half of the fitted maximal effect; tags describe the fitted curve by direction and shape.

UniProt P49798, sequence (P49798 whole entry, looked up): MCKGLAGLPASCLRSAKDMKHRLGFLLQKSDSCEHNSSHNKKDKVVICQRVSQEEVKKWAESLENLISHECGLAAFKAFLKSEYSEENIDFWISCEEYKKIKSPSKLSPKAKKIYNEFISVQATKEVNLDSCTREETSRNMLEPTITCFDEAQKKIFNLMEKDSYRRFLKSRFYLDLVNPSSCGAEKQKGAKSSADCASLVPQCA

| SMILES | Potency | activity change, negative = inhibition |
| --- | --- | --- |
| CCc1ccc(-n2nnc(-c3nsc(NC(=O)c4ccccc4Cl)n3)c2C)cc1 | inconclusive: 39.8 µM [inhibitor, partial curve, poor fit] | – |
| COc1ccc(NC(=S)NNc2ccc(C(=O)O)cc2)cc1 | inconclusive: 56.2 µM [inhibitor, partial curve, poor fit] | – |
| CCOC(=O)/C(=C\c1cn(C)c2ccccc12)[N+](=O)[O-] | – | inactive: -25.6% |
| OCc1cc(Br)ccc1OCc1nc2ccccc2s1 | – | inactive: -23.7% |
| Cc1cccc(Cn2cc(/C=C/[N+](=O)[O-])c3ccccc32)c1 | inconclusive: 100 µM [inhibitor, single point] | – |
| O/N=C1/CCc2nonc2/C1=N/O | inconclusive: 89.1 µM [inhibitor, single point] | – |
| COc1ccc(CNc2ncccc2[N+](=O)[O-])cc1 | – | inactive: -6.83% [at 56.9 µM] |
| Cc1cc(C)c(C(=O)COC(=O)c2cccnc2Cl)c(C)c1 | inconclusive: 17.8 µM [inhibitor, partial curve, poor fit] | – |
| CC(C)[C@H](NC(=O)c1ccccc1)C(=O)OCc1nnc(-c2ccccc2)o1 | inconclusive: 17.8 µM [inhibitor, full curve, poor fit] | – |
| O=C(CSc1ccccc1C(=O)O)c1ccc([N+](=O)[O-])cc1 | inconclusive: 28.2 µM [inhibitor, full curve, poor fit] | – |
| COc1cc(/C=C/C(=O)NC2CCCCC2)cc(OC)c1OC | inconclusive: 100 µM [inhibitor, partial curve, poor fit] | – |
| COC(=O)/C=C/c1cc(F)ccc1S(=O)(=O)NC(C)(C)C | – | inactive: 4.57% |
| Cc1[nH][nH]c(=O)c1C(c1c(C)[nH][nH]c1=O)c1cn(Cc2ccc(Cl)c(Cl)c2)c2ccccc12 | inconclusive: 56.2 µM [inhibitor, partial curve, poor fit] | – |
| CC(C)NC(=O)N(C)C[C@H]1Oc2c(NC(=O)Cc3ccccc3)cccc2C(=O)N([C@H](C)CO)C[C@@H]1C | inconclusive: 79.4 µM [inhibitor, single point] | – |
| O=C1/C(=C\c2cccc([N+](=O)[O-])c2O)SC(=S)N1Cc1ccccc1 | inconclusive: 39.8 µM [inhibitor, partial curve, poor fit] | – |
| CN(N)c1ccc2c(C(F)(F)F)cc(C(F)(F)F)nc2n1 | inconclusive: 22.4 µM [inhibitor, full curve, poor fit] | – |
| CCC1=NC(c2ccc(OC)c(OC)c2)N(O)C1(C)C (configuration not stated) | inconclusive: 56.2 µM [inhibitor, partial curve, poor fit] | – |
| O=C(CSc1ccc(-c2ccncc2)nn1)N1CCN(c2ccccc2)CC1 | – | inactive: -28.3% |
| Cc1cc(C(=O)N/N=C/c2ccc(O)c(O)c2O)c(C)n1-c1ccccc1 | inconclusive: 79.4 µM [inhibitor, partial curve, poor fit] | – |
| O=C1NC(=S)S/C1=C\C=C\c1ccc([N+](=O)[O-])o1 | inconclusive: 100 µM [inhibitor, partial curve, poor fit] | – |
| Cc1ccc(-c2csc(NC(=O)CSc3nc4ccccc4[nH]3)n2)cc1 | – | inactive: -29.3% |

| SMILES | Potency | activity change, negative = inhibition |
| --- | --- | --- |
| Clc1ccc(NC2(c3nnnn3C3CCCCC3)CCCCC2)cc1 | inconclusive: 50.1 µM [inhibitor, partial curve, poor fit] | – |
| O=C(CCNS(=O)(=O)c1cccc(Cl)c1)OCC(=O)N1CCN(C(=O)c2ccco2)CC1 | – | inactive: -35.6% |
| CCc1cc(C(=O)NNC(=S)Nc2cc(C)ccc2C)cs1 | inconclusive: 89.1 µM [inhibitor, partial curve, poor fit] | – |
| CC(=O)N1CCc2cc(S(=O)(=O)CCC(=O)NCCc3ccc(C)cc3)ccc21 | inconclusive: 50.1 µM [inhibitor, partial curve, poor fit] | – |
| COc1ccc(C(CNC(=O)c2cc3ccccc3cc2OC)N2CCCC2)cc1 (configuration not stated) | – | inactive: -14.6% |
| CCc1ccc(NC(=O)CN2CCN(C3CCCCC3)C(=O)C2=O)cc1 | – | inactive: -8.94% |
| COc1ccc(/C=N/NC(=O)c2cc[n+]([O-])cc2)cc1OC | inconclusive: 89.1 µM [inhibitor, single point] | – |
| CCOC(=O)Nc1ccc(C(=O)/C=C/c2ccccc2)cc1 | – | inactive: -14.1% |
| COc1ccc(S(=O)(=O)/N=C2/NC(=O)/C(=C/c3ccco3)S2)cc1 | inconclusive: 89.1 µM [inhibitor, single point] | – |
| COc1ccc(CC(=O)Nc2ncc([N+](=O)[O-])s2)cc1OC | inconclusive: 31.6 µM [inhibitor, partial curve, poor fit] | – |
| CCOC(=O)C(Sc1nn(C)c(=S)s1)C(C)=O (configuration not stated) | inconclusive: 89.1 µM [inhibitor, single point] | – |
| CSc1sc2ccccc2[n+]1CCCS(=O)(=O)[O-] | inconclusive: 44.7 µM [inhibitor, partial curve, poor fit] | – |
| COc1ccc(C(=O)N(CN2CCCC2=O)c2ccccc2OC)cc1OC | – | inactive: -6.7% |
| COc1ccc(C(C)=O)cc1COC(=O)c1ccc(OCc2c(C)noc2C)cc1 | inconclusive: 17.8 µM [inhibitor, full curve, poor fit] | – |
| O=c1oc2ccccc2n1CSc1nc2ccccc2s1 | – | inactive: -24.4% [at 11.4 µM] |
| Cc1[nH][nH]c(=O)c1C(c1ccc(-c2ccccc2C(=O)O)o1)c1c(C)[nH][nH]c1=O | inconclusive: 89.1 µM [inhibitor, single point] | – |
| COc1ccc(OC)c(/C=N/NC(=O)CSc2cc(C)nc3c(OC)cccc23)c1 | inconclusive: 79.4 µM [inhibitor, single point] | – |
| Cn1c(-c2ccco2)nc2cc3ccccc3cc21 | inconclusive: 79.4 µM [inhibitor, partial curve, poor fit] | – |
| O=C(O)c1ccccc1C(=O)NNc1ccc(Cl)cc1 | inconclusive: 89.1 µM [inhibitor, single point] | – |
| COc1ccc2oc(=O)c(-c3nnc(NCc4ccco4)s3)cc2c1 | inconclusive: 31.6 µM [inhibitor, full curve, poor fit] | – |
| COc1ccc(-n2c(SCC(=O)C(C)(C)C)nc3c(sc(=S)n3-c3ccccc3)c2=O)c(OC)c1 | inconclusive: 79.4 µM [inhibitor, partial curve, poor fit] | – |
